# Hit rate of the full screen: of about 39,000 compounds, about 220 (0.56%) showed activity. The list shows a part of the results.
# Tested on: Escherichia coli K-12 BW25113
# Assay: relative growth (OD600 normalised to plate interquartile mean) (fraction); higher = less growth inhibition, active = 0.2 or less
# Conditions: 50 µM; LB; incubation time: overnight (16-24 h)
# 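Also: static incubation at 37 °C against the wild-type strain, values averaged over two biological replicates.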
row,Structure (SMILES),relative growth
1,c1ccc(-c2[nH]nc3ccccc23)cc1,inactive: 0.931
2,Cc1ccc(-c2cnc3c(c2)C(=O)N([C@H](C)CO)C[C@@H](C)[C@@H](CN(C)C(=O)Cc2cccnc2)O3)cc1,inactive: 0.994
3,CNC[C@@H]1Oc2ccc(NS(=O)(=O)c3cn(C)cn3)cc2CC(=O)N([C@H](C)CO)C[C@H]1C,inactive: 0.975
4,CNC(=O)C(=O)NC[C@H](c1ccc2c(c1)OCO2)N1CCOCC1,inactive: 1.01
5,C[C@@H]1CCCCO[C@@H](CN(C)Cc2ccccc2)[C@H](C)CN([C@@H](C)CO)C(=O)c2cc(NC(=O)c3ccncc3)ccc2O1,inactive: 0.989
6,C[C@@H]1CCCCO[C@@H](CN(C)C(=O)c2ccccc2)[C@H](C)CN([C@@H](C)CO)C(=O)c2cc(NC(=O)Nc3ccc(F)cc3)ccc2O1,inactive: 0.994
7,C/C=C/c1cccc(-c2nc(C(=O)NCc3ccc(OC)cc3)cc3c2[C@@H](CCO)N([S@@](=O)C(C)(C)C)C3)c1,inactive: 1.04
8,COc1cccc(S(=O)(=O)N(C)C[C@@H]2Oc3cc(C#CCC(C)C)ccc3S(=O)(=O)N([C@H](C)CO)C[C@@H]2C)c1,inactive: 1.01
9,COc1cccc(S(=O)(=O)Nc2ccc3c(c2)OC[C@H](C)N(C(=O)Cc2cccnc2)C[C@H](C)[C@H](OC)CN(C)C3=O)c1,inactive: 0.963
10,COc1ccc([Si](C)(C)[C@@H]2[C@@H](CCO)O[C@]3(C(=O)N(Cc4cccc(N5C(=O)c6cccc7cccc5c67)c4)c4ccccc43)[C@H]2C)cc1,inactive: 0.908
11,COc1ccc(NC(=O)Nc2cccc3c2O[C@@H](CN(C)Cc2ccc(Cl)c(Cl)c2)[C@@H](C)CN([C@@H](C)CO)C3=O)cc1,inactive: 0.994
12,C[C@@H]1CN([C@@H](C)CO)C(=O)c2cc(NS(=O)(=O)c3ccc(F)cc3)ccc2O[C@@H](C)CCCCO[C@@H]1CN(C)CC1CCCCC1,inactive: 0.981
13,CCO[C@H]1CN(CC)C[C@@H]1N,inactive: 0.984
14,C[C@H](CO)N1C[C@H](C)[C@@H](CN(C)Cc2ccc(C(F)(F)F)cc2)OCc2ccccc2-c2c(n(C)c3ccccc23)C1=O,inactive: 1.03
15,C[C@H](CO)N1C[C@H](C)[C@@H](CN(C)C(=O)Nc2cccc3ccccc23)Oc2c(NS(=O)(=O)c3cccs3)cccc2C1=O,inactive: 0.994
16,C[C@H](CO)N1C[C@H](C)[C@H](CN(C)S(C)(=O)=O)Oc2cc(-c3ccc(F)cc3)ccc2S1(=O)=O,inactive: 1.02
17,O=C(C[C@H]1CC[C@@H]2[C@H](COC[C@H](O)CN2S(=O)(=O)c2ccccc2)O1)N[C@@H]1CCN(Cc2ccccc2)C1,inactive: 0.991
18,Cc1noc(C)c1NC(=O)Nc1ccc2c(c1)CC(=O)N([C@H](C)CO)C[C@H](C)[C@H](CN(C)Cc1ccc(-c3ccccc3)cc1)O2,inactive: 1.02
19,C[C@@H]1CN([C@H](C)CO)C(=O)c2cc(NS(=O)(=O)c3cn(C)cn3)ccc2O[C@@H]1CN(C)CC1CC1,inactive: 0.994
20,C[C@@H]1CN([C@@H](C)CO)C(=O)Cc2cc(NC(=O)c3ccncc3)ccc2O[C@H]1CN(C)Cc1ccc(Oc2ccccc2)cc1,inactive: 0.994

row,Structure (SMILES),relative growth
1,C[C@@H]1CCCCO[C@H](CN(C)C(=O)Cc2ccccc2)[C@H](C)CN([C@H](C)CO)C(=O)c2cc(NC(=O)CCC(F)(F)F)ccc2O1,inactive: 0.986
2,C[C@@H]1CN([C@H](C)CO)C(=O)c2cccc(NS(=O)(=O)c3ccc(Cl)cc3)c2O[C@@H]1CN(C)Cc1ccc(Cl)c(Cl)c1,inactive: 1.02
3,CC(C)CC(N)=O,inactive: 1.08
4,C[C@@H]1CN([C@@H](C)CO)C(=O)Cc2cc(NC(=O)Cc3cn(C)c4ccccc34)ccc2O[C@H]1CN(C)C(=O)Nc1ccc(C(F)(F)F)cc1,inactive: 0.965
5,COc1ccc(S(=O)(=O)N(C)C[C@H]2Oc3c(NS(C)(=O)=O)cccc3C(=O)N([C@@H](C)CO)C[C@@H]2C)cc1,inactive: 0.991
6,CC(C)NC(=O)N(C)C[C@@H]1OCCCC[C@H](C)Oc2ccc(NC(=O)Nc3cccc4ccccc34)cc2C(=O)N([C@H](C)CO)C[C@@H]1C,inactive: 0.946
7,C[C@H]1CCCCO[C@@H](CN(C)C(=O)c2ccccc2)[C@@H](C)CN([C@@H](C)CO)C(=O)c2cc(NS(=O)(=O)c3ccccc3)ccc2O1,inactive: 1.01
8,COc1c2occc2cc2ccc(=O)oc12,inactive: 0.905
9,Cc1noc(C)c1NC(=O)Nc1ccc2c(c1)C(=O)N([C@@H](C)CO)C[C@H](C)[C@H](CN(C)Cc1ccc3c(c1)OCO3)OCCCC[C@H](C)O2,inactive: 0.914
10,OCCN1C[C@@H](O)[C@@H](O)[C@@H](O)[C@@H]1CO,inactive: 1.02
11,C[C@H](CO)N1C[C@H](C)[C@H](CN(C)S(=O)(=O)c2cn(C)cn2)OCCCC[C@H](C)Oc2ccc(NS(=O)(=O)c3cccs3)cc2C1=O,inactive: 1.01
12,Cc1noc(C)c1NC(=O)Nc1ccc2c(c1)C(=O)N([C@H](C)CO)C[C@H](C)[C@@H](CN(C)Cc1ccc(C(=O)O)cc1)OCCCC[C@H](C)O2,inactive: 0.973
13,C[C@H]1CN([C@@H](C)CO)C(=O)Cc2cc(NS(=O)(=O)c3ccc(Cl)cc3)ccc2O[C@@H]1CN(C)C(=O)Nc1ccc(C(F)(F)F)cc1,inactive: 0.972
14,CC(C)NC(=O)N(C)C[C@@H]1OCCCC[C@@H](C)Oc2ccc(NS(C)(=O)=O)cc2C(=O)N([C@H](C)CO)C[C@@H]1C,inactive: 0.982
15,C[C@@H]1CCCCO[C@@H](CN(C)C(=O)Nc2ccccc2)[C@H](C)CN([C@@H](C)CO)C(=O)c2cc(NC(=O)CCC(F)(F)F)ccc2O1,inactive: 0.999
16,C[C@@H]1CCCCO[C@H](CN(C)C(=O)Cc2ccccc2)[C@@H](C)CN([C@@H](C)CO)C(=O)c2cc(NC(=O)Nc3ccc4c(c3)OCO4)ccc2O1,inactive: 0.998
17,C[C@H]1CN([C@@H](C)CO)S(=O)(=O)c2ccc(Br)cc2O[C@H]1CN(C)CC1CCOCC1,inactive: 0.99
18,N#Cc1ccc(C(c2ccc(C#N)cc2)n2cncn2)cc1,inactive: 0.89
19,C[C@H]1C(=O)C(=O)[C@@H]2O[C@@H]2C1=O,inactive: 0.576
20,C[C@H]1CCCCO[C@@H](CN(C)Cc2ccncc2)[C@@H](C)CN([C@@H](C)CO)C(=O)c2cc(NC(=O)Nc3ccc(F)cc3)ccc2O1,inactive: 0.996

row,Structure (SMILES),relative growth
1,COc1cccc(S(=O)(=O)N2C[C@H](O)COC[C@H]3O[C@H](CC(=O)NCCCN4CCOCC4)CC[C@@H]32)c1,inactive: 1.02
2,Cc1noc(C)c1NC(=O)Nc1ccc2c(c1)C(=O)N([C@H](C)CO)C[C@@H](C)[C@H](CN(C)Cc1ccc(C(=O)O)cc1)OCCCC[C@@H](C)O2,inactive: 1.04
3,O=C(C[C@@H]1CC=CC[C@@H](NC(=O)OCC2c3ccccc3-c3ccccc32)C(=O)OC[C@H](Cc2ccccc2)NC1=O)N[C@H](CO)Cc1ccccc1,inactive: 0.957
4,C[C@H]1CCCCO[C@@H](CN(C)Cc2ccccc2)[C@@H](C)CN([C@@H](C)CO)C(=O)c2cc(NC(=O)Nc3ccc(F)cc3)ccc2O1,inactive: 0.996
5,C[C@H]1CCCCO[C@H](CN(C)Cc2ccc(C(F)(F)F)cc2)[C@@H](C)CN([C@@H](C)CO)C(=O)c2cc(N(C)C)ccc2O1,inactive: 0.986
6,CC(C)NC(=O)N(C)C[C@H]1Oc2ccc(NS(=O)(=O)c3cccs3)cc2C(=O)N([C@H](C)CO)C[C@H]1C,inactive: 0.994
7,C[C@@H]1CCCCO[C@@H](CN(C)C(=O)Nc2ccc(C(F)(F)F)cc2)[C@H](C)CN([C@@H](C)CO)C(=O)c2cc(NC(=O)CCC(F)(F)F)ccc2O1,inactive: 1.01
8,CN1CCN(C(=O)C[C@@H]2C=C[C@@H](NS(=O)(=O)c3cccc(F)c3)[C@H](CO)O2)CC1,inactive: 0.988
9,C[C@@H]1CN([C@@H](C)CO)C(=O)Cc2cc(NC(=O)Nc3cccc4ccccc34)ccc2O[C@@H]1CN(C)CC1CCCCC1,inactive: 1.02
10,C[C@@H]1CN([C@H](C)CO)C(=O)c2cccc(NC(=O)c3cnccn3)c2O[C@@H]1CN(C)C(=O)Nc1ccccc1,inactive: 1.02
11,Cc1ccc(C(C)C)cc1O,inactive: 1.01
12,C[C@H]1CCCCO[C@@H](CN(C)S(=O)(=O)c2cccs2)[C@@H](C)CN([C@@H](C)CO)C(=O)c2cc(NC(=O)C3CCCCC3)ccc2O1,inactive: 1.01
13,C[C@@H]1CN([C@@H](C)CO)C(=O)c2cc(NC(=O)CCCCCC(=O)Nc3ccccc3N)ccc2O[C@@H]1CN(C)S(=O)(=O)c1cn(C)cn1,inactive: 1
14,CCCN(C)C[C@@H]1Oc2cc(C#Cc3ccc(OC)cc3)ccc2S(=O)(=O)N([C@@H](C)CO)C[C@@H]1C,inactive: 0.995
15,C=CCN1C(=O)C[C@@H]2[C@@H]1CCN2c1cnccn1,inactive: 1
16,COc1ccc(S(=O)(=O)Nc2ccc3c(c2)C(=O)N([C@@H](C)CO)C[C@H](C)[C@H](CN(C)C(=O)Nc2ccccc2)OCCCC[C@@H](C)O3)cc1,inactive: 0.955
17,O[C@H]1[C@H](O)[C@@H](O)[C@H](O)[C@H](O)[C@H]1O,inactive: 0.995
18,Cc1ccc(S(=O)(=O)N(C)C[C@H]2Oc3ccc(NC(=O)Nc4cccc5ccccc45)cc3C(=O)N([C@@H](C)CO)C[C@@H]2C)cc1,inactive: 1.02
19,C[C@@H]1CCCCO[C@H](CN(C)C(=O)CCC(F)(F)F)[C@@H](C)CN([C@H](C)CO)C(=O)c2cc(NC(=O)CCCCCC(=O)Nc3ccccc3N)ccc2O1,inactive: 1.04
